The record followed here is publication PMC5892938.

Some of the results follow. At the low end of the ranking the order means little.

The target in the assay is GST-SBP-SLBP (stem-loop binding protein) (UniProt Q14493). Nature of the assay: targeted RNA Bind-n-Seq.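 Note: DESeq read counts versus GST-SBP nonspecific binding control pulldown.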 To be noted: RBNS binding buffer: 25 mM Tris pH 7.5, 150 mM KCl, 3 mM MgCl2, 0.1% Tween, 0.5 mg/mL BSA, 1 mM DTT; 27 nM protein, 750 pM RNA pool; temperature not stated; high values mean tight binding.
In the case of “GGUCACGUCUCAAUCAACUCUUCCUCCAGGGAAAACCCUGGUAAUUUCAACAGCUCGCAGUCAAG”, the binding signal (log2 fold change) was -0.0581.

“GGUCACGUCUCAAUCAACUCACAAGAGGGGGGGAAAACCCCUUUGCCCUCAACAUCAACAGCUCGCAGUCAAG”: the binding signal (log2 fold change) was 0.189.

For “GGUCACGUCUCAAUCAACUCAGUCCCAGGAGUUUUCUCCUGCAUAUUCAACAGCUCGCAGUCAAG”, the binding signal (log2 fold change) was found to be 0.0113.

For the sequence “GGUCACGUCUCAAUCAACUCAUCUCCAGGAGUUUCCUCCUGCUUUCUCAACAGCUCGCAGUCAAG”, the binding signal (log2 fold change) is -0.125.

As for “GGUCACGUCUCAAUCAACUCUACUUCAGGAGUUUACUCCUGUAAAUUCAACAGCUCGCAGUCAAG”, the binding signal (log2 fold change) was 0.139.

As for “GGUCACGUCUCAAUCAACUCAAUCCCAGGAGUUUGCUCCUGCUAUCUCAACAGCUCGCAGUCAAG”, the binding signal (log2 fold change) is 0.112.

Turning to “GGUCACGUCUCAAUCAACUCUUCUCCAGGAGUUUUCUCCUGUAAAUUCAACAGCUCGCAGUCAAG”, the binding signal (log2 fold change) is 0.14.

On to “GGUCACGUCUCAAUCAACUCCCUAGAGGGGGGGAAAACCCCUUUGCCCUCGAUAUCAACAGCUCGCAGUCAAG”, for which the binding signal (log2 fold change) was found to be 0.0782.

Take “GGUCACGUCUCAAUCAACUCAUCUCCAGGAGUUUACUCCUGCAUUCUCAACAGCUCGCAGUCAAG”: the binding signal (log2 fold change) was 0.0217.

“GGUCACGUCUCAAUCAACUCUAUCCCCAGGGAAAGCCCUGGUUAUUUCAACAGCUCGCAGUCAAG”: the binding signal (log2 fold change) was -0.0712.

With “GGUCACGUCUCAAUCAACUCAAUCUCCAGGGAAAACCCUGGCAUAGUCAACAGCUCGCAGUCAAG”, the binding signal (log2 fold change) amounted to 0.00683.

In the case of “GGUCACGUCUCAAUCAACUCAUCGCCAGGAGUUUGCUCCUGUAUUUUCAACAGCUCGCAGUCAAG”, the binding signal (log2 fold change) was 0.321.

Turning to “GGUCACGUCUCAAUCAACUCUUCGUCAGGAGUUUACUCCUGUUUAUUCAACAGCUCGCAGUCAAG”, the binding signal (log2 fold change) is -0.0203.

“GGUCACGUCUCAAUCAACUCUUACGAGGGGGGGAAAACCCCUUUACCCUCACAUUCAACAGCUCGCAGUCAAG”: the binding signal (log2 fold change) was determined as 0.283.

Consider “GGUCACGUCUCAAUCAACUCAAUCUCCAGGGAAAGCCCUGGCUAUCUCAACAGCUCGCAGUCAAG”, for which the binding signal (log2 fold change) was -0.014.

As for “GGUCACGUCUCAAUCAACUCAUCUUCCAGGGAAAUCCCUGGCAAUCUCAACAGCUCGCAGUCAAG”, the binding signal (log2 fold change) was determined as 0.0372.

With “GGUCACGUCUCAAUCAACUCAUCUUCCAGGGAAACCCCUGGUUAAUUCAACAGCUCGCAGUCAAG”, the binding signal (log2 fold change) was 0.0695.

On to “GGUCACGUCUCAAUCAACUCUACUUCCAGGGAAAUCCCUGGCUAUGUCAACAGCUCGCAGUCAAG”, for which the binding signal (log2 fold change) was 0.0885.

With “GGUCACGUCUCAAUCAACUCAAUCCCAGGAGUUUACUCCUGCAAUUUCAACAGCUCGCAGUCAAG”, the binding signal (log2 fold change) worked out at 0.0311.

Regarding “GGUCACGUCUCAAUCAACUCAACUUCCAGGGAAAACCCUGGCAAACUCAACAGCUCGCAGUCAAG”, the binding signal (log2 fold change) came to 0.027.

Take “GGUCACGUCUCAAUCAACUCAUCCUCAGGAGUUUUCUCCUGCUUAGUCAACAGCUCGCAGUCAAG”: the binding signal (log2 fold change) worked out at 0.00739.

In the case of “GGUCACGUCUCAAUCAACUCAUCCCCAGGAGUUUCCUCCUGCUAUCUCAACAGCUCGCAGUCAAG”, the binding signal (log2 fold change) came out at 0.137.

Consider “GGUCACGUCUCAAUCAACUCUUCCUCCAGGGAAAACCCUGGCUUUCUCAACAGCUCGCAGUCAAG”, for which the binding signal (log2 fold change) was determined as 0.11.

“GGUCACGUCUCAAUCAACUCUAUCCCAGGAGUUUACUCCUGUUUAUUCAACAGCUCGCAGUCAAG”: the binding signal (log2 fold change) is 0.184.

“GGUCACGUCUCAAUCAACUCAAUUCCCAGGGAAAACCCUGGUUUAUUCAACAGCUCGCAGUCAAG”: the binding signal (log2 fold change) was -0.0328.

Take “GGUCACGUCUCAAUCAACUCAUUUUCCAGGGAAAACCCUGGCAGUCUCAACAGCUCGCAGUCAAG”: the binding signal (log2 fold change) came out at 0.0702.

As to “GGUCACGUCUCAAUCAACUCAUAAGAGGGGGGGAAAACCCCUUUGCCCUCAAUCUCAACAGCUCGCAGUCAAG”, the binding signal (log2 fold change) turned out to be 0.373.

On to “GGUCACGUCUCAAUCAACUCCCUAGAGGGGGGGAAAACCCCUUUACCCUCACUAUCAACAGCUCGCAGUCAAG”, for which the binding signal (log2 fold change) was -0.114.

For “GGUCACGUCUCAAUCAACUCAUCGUCAGGAGUUUCCUCCUGCAUAUUCAACAGCUCGCAGUCAAG”, the binding signal (log2 fold change) is -0.0426.

“GGUCACGUCUCAAUCAACUCUAUCUCCAGGGAAAUCCCUGGCUUAUUCAACAGCUCGCAGUCAAG”: the binding signal (log2 fold change) was determined as 0.00482.

As to “GGUCACGUCUCAAUCAACUCUUCUUCCAGGGAAAGCCCUGGUUAUUUCAACAGCUCGCAGUCAAG”, the binding signal (log2 fold change) is -0.318.

As for “GGUCACGUCUCAAUCAACUCAUCUCCCAGGGAAAACCCUGGUAUACUCAACAGCUCGCAGUCAAG”, the binding signal (log2 fold change) is -0.163.

As to “GGUCACGUCUCAAUCAACUCAGUCUCAGGAGUUUCCUCCUGCUUAUUCAACAGCUCGCAGUCAAG”, the binding signal (log2 fold change) is -0.0181.

“GGUCACGUCUCAAUCAACUCUAUUUCCAGGGAAAGCCCUGGUUUACUCAACAGCUCGCAGUCAAG”: the binding signal (log2 fold change) worked out at 0.101.

Consider “GGUCACGUCUCAAUCAACUCAGUCUCAGGAGUUUCCUCCUGCUAUUUCAACAGCUCGCAGUCAAG”, for which the binding signal (log2 fold change) was 0.343.

On to “GGUCACGUCUCAAUCAACUCUUUCCCAGGAGUUUCCUCCUGUUUACUCAACAGCUCGCAGUCAAG”, for which the binding signal (log2 fold change) is 0.141.

As to “GGUCACGUCUCAAUCAACUCCCAAGAGGGGGGGAAAACCCCUUUACCCUCCAGAUCAACAGCUCGCAGUCAAG”, the binding signal (log2 fold change) is -0.151.
